Results taken from the antibiotic and cytotoxicity screens of Wong et al. (2023).
The list shows a part of the results.

The compounds below were run on HSkMC (human skeletal muscle cells) (assay: cytotoxicity call (relative viability < 0.9)). Conditions: 10 µM.
In the case of `COc1ccc(S(=O)(=O)N(C)C[C@@H]2Oc3c(NC(=O)Nc4cccc5ccccc45)cccc3C(=O)N([C@@H](C)CO)C[C@H]2C)cc1C`, the cytotoxicity call was “inactive”.
In the case of `C[C@@H]1CN([C@H](C)CO)C(=O)c2cc(C#CCN(C)C)cnc2O[C@H]1CN(C)S(=O)(=O)c1cn(C)cn1`, the cytotoxicity call was “inactive”.
In the case of `CCOC(=O)c1ccc(CNS(=O)(=O)c2ccc(S(=O)(=O)N3CCOCC3)cc2)o1`, the cytotoxicity call was “inactive”.
For `COc1ccc(S(=O)(=O)Nc2ccc3c(c2)CC(=O)N([C@H](C)CO)C[C@@H](C)[C@H](CN(C)S(=O)(=O)c2c(C)noc2C)O3)cc1`, the cytotoxicity call was “inactive”.
`CC(=O)N(C)C[C@H]1Oc2ncc(C#C[C@@H](C)O)cc2C(=O)N([C@H](C)CO)C[C@@H]1C` was tested, and the cytotoxicity call was “inactive”.
`O=C(O)C=CC(=O)O.OCCOCCN1CCN(C2=Nc3ccccc3Sc3ccccc32)CC1` was tested, and the cytotoxicity call was “inactive”.
For `NC(CO)(CO)CO.O=C(c1ccccc1)c1ccc2n1CCC2C(=O)O` (configuration not stated), the cytotoxicity call was “inactive”.
For `Cc1noc(C)c1NC(=O)N(C)C[C@@H]1Oc2ccc(NS(=O)(=O)c3cn(C)cn3)cc2CC(=O)N([C@H](C)CO)C[C@H]1C`, the cytotoxicity call was “inactive”.
With `O=C(C[C@@H]1CC[C@@H]2[C@H](COC[C@H](O)CN2S(=O)(=O)c2cccc(Cl)c2)O1)NCc1ccncn1` the cytotoxicity call was “inactive”.
With `COc1ccc2c3c([nH]c2c1)[C@@H](CO)N(Cc1ccccc1)C[C@]13CCN(CC1)C(=O)Nc1cccc(c1)F` the cytotoxicity call was “inactive”.
In the case of `CC(C)(C)[C@H]1COC(=O)[C@@H](NC(=O)OCC2c3ccccc3-c3ccccc32)CC=CC[C@H](CC(=O)NCCO)C(=O)N1`, the cytotoxicity call was “inactive”.
`Cc1noc(C)c1NC(=O)Nc1ccc2c(c1)CC(=O)N([C@H](C)CO)C[C@H](C)[C@@H](CN(C)Cc1ccc(C(F)(F)F)cc1)O2` was tested, and the cytotoxicity call was “inactive”.
For `Cc1ccc(C(=N)N)n1C`, the cytotoxicity call was “inactive”.
For `CCn1nnc2c(=S)nc[nH]c21`, the cytotoxicity call was “inactive”.
`C[C@@H]1CN([C@@H](C)CO)C(=O)c2cc(NC(=O)Nc3cccc4ccccc34)ccc2O[C@@H]1CN(C)S(=O)(=O)c1cccs1` was tested, and the cytotoxicity call was “inactive”.
With `COc1ccc(S(=O)(=O)N(C)C[C@H]2OCCCC[C@@H](C)Oc3ccc(NC(=O)Nc4ccc(F)cc4)cc3C(=O)N([C@@H](C)CO)C[C@@H]2C)cc1` the cytotoxicity call was “inactive”.
With `COC(=O)c1cc(=O)nc2n1[C@H]1O[C@H](CO)[C@H](O)[C@H]1O2` the cytotoxicity call was “inactive”.
`C[C@@H]1CN([C@H](C)CO)C(=O)c2cc(NC(=O)C3CC3)ccc2O[C@@H]1CN(C)C(=O)NC1CCCCC1` was tested, and the cytotoxicity call was “inactive”.
In the case of `Cc1noc(C)c1NC(=O)Nc1ccc2c(c1)C(=O)N([C@H](C)CO)C[C@@H](C)[C@@H](CN(C)C(=O)NC1CCCCC1)OCCCC[C@H](C)O2`, the cytotoxicity call was “inactive”.
In the case of `CC[C@@H](O)CNNC(=O)OC(C)(C)C`, the cytotoxicity call was “inactive”.
With `Cn1cnc(CCNC(=O)C[C@H]2CC[C@H]3[C@@H](COC[C@H](O)CN3C(=O)Nc3ccc(Cl)cc3)O2)c1` the cytotoxicity call was “inactive”.
For `CCOC(=O)N(C)C[C@H]1OCc2cn(nn2)CCCC(=O)N([C@@H](C)CO)C[C@H]1C`, the cytotoxicity call was “inactive”.
With `C[C@@H]1CN([C@@H](C)CO)C(=O)c2cc(NS(=O)(=O)c3cn(C)cn3)ccc2O[C@@H]1CN(C)S(C)(=O)=O` the cytotoxicity call was “inactive”.
In the case of `Cc1noc(C)c1S(=O)(=O)Nc1ccc2c(c1)CC(=O)N([C@H](C)CO)C[C@@H](C)[C@H](CN(C)Cc1ccc(Oc3ccccc3)cc1)O2`, the cytotoxicity call was “inactive”.
In the case of `C[C@@H]1CCCCO[C@H](CN(C)CC2CCCCC2)[C@H](C)CN([C@H](C)CO)C(=O)c2cc(NC(=O)Nc3ccccc3)ccc2O1`, the cytotoxicity call was “inactive”.
`C[C@@H]1CN([C@@H](C)CO)C(=O)c2cccc(NC(=O)Nc3ccc(C(F)(F)F)cc3)c2O[C@@H]1CN(C)Cc1ccc2c(c1)OCO2` was tested, and the cytotoxicity call was “inactive”.
In the case of `COc1ccc(CN(C)C[C@H]2OCCCC[C@@H](C)Oc3ccc(NC(=O)Cc4ccccc4)cc3C(=O)N([C@@H](C)CO)C[C@H]2C)cc1`, the cytotoxicity call was “inactive”.
`COc1ccc2[nH]cc(CCNC(C)=O)c2c1` was tested, and the cytotoxicity call was “inactive”.
With `COc1ccc(NC(=O)Nc2ccc3c(c2)C(=O)N([C@@H](C)CO)C[C@H](C)[C@@H](CN(C)S(=O)(=O)c2ccc(Cl)cc2)OCCCC[C@H](C)O3)cc1` the cytotoxicity call was “inactive”.
`OCC1CCNCC1` was tested, and the cytotoxicity call was “inactive”.
In the case of `COc1ccc(NC(=O)Nc2ccc3c(c2)C(=O)N([C@@H](C)CO)C[C@H](C)[C@@H](CN(C)C(=O)c2ccccc2)OCCCC[C@H](C)O3)cc1`, the cytotoxicity call was “inactive”.
With `C=CC[C@@H](CC(=O)N[C@H](CO)Cc1ccccc1)C(=O)NC[C@@H](OC(=O)[C@@H](CC=C)Cc1ccc(F)cc1)c1ccccc1` the cytotoxicity call was “inactive”.
